From publication PMC12136788
The list shows a part of the results.

T1: UNK ZnF1-3 (human, UniProt Q9C0B0 31-174)
T1 sequence: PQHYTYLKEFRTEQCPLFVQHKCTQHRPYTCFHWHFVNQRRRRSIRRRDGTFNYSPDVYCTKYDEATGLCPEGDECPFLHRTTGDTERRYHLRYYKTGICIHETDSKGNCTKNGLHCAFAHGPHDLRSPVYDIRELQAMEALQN

B1: chr19:41288738:41288739:-_ENSMUSG00000025016_ENSMUST00000025989|mus_mus|FALSE|FALSE (ssRNA)
RNA: GGGAGUUCUACAGUCCGACGAUCUGGGGGAGGGAGGGGAAGAUAAUCACUUUAGACAUUCAGUUAAAAUGUAAAUUAUCUAAAUCUCCAAAUGUUUAAUAAAAACAAGCAUCUUCUCCAUUUAACACUUCGCUUGCUAACUGUCAACAGAGGAUUGAGCAUCA
B2: chr1:39494447:39494448:+_ENSG00000168653_ENST00000372967|hu_hu|FALSE|FALSE (ssRNA)
RNA: GGGAGUUCUACAGUCCGACGAUCGCAUCGACCAGCCAUCUUGUAGGGCUGUUCACCACUCUGGAUUGUCAACCAUCGAUCUAUGUUAAGGCCGAACCUUUUCUGGAUGUCCAAGAAAGGCAUGGCCGAUGCUCGUGCCCUUGACAACAGAGGAUUGAGCAUCA
B3: chr4:123032474:123032475:-_ENSMUSG00000028649_ENSMUST00000154824|mus_hu|FALSE|FALSE (ssRNA)
RNA: GGGAGUUCUACAGUCCGACGAUCGUGAGCGGAAGGGGGUCAUUCCCUGGGAUGCUCCCUCUGGUAGGAUGAAUUUCUCUCUAAGUUCAAUGUUAGUUCUACCUCGUGCUCGGCAGGGAUCAUUUUUCACUAAAAAUUCAUCCACAACAGAGGAUUGAGCAUCA
B4: chrX:17825403:17825404:+_ENSMUSG00000037369_ENSMUST00000044484|mus_mus|FALSE|FALSE (ssRNA)
RNA: GGGAGUUCUACAGUCCGACGAUCCCAUGAAUGAGUUUGUUGUUCUACUGGAGGUGGUGCAUUGCCACCACUCCAAUUAUCAGAAGUAUUCUGCUGUGCUGUGUUCAUGGCACCCUGCCUGGAGGUAAGCUCUGCGGGGAUUGGCAACAGAGGAUUGAGCAUCA
B5: chr18:56819859:56819860:+_ENSG00000166562_ENST00000588875|hu_mus|hu_hu_hu_mus_True|8_88 (ssRNA)
RNA: GGGAGUUCUACAGUCCGACGAUCAACCUUGAUUACUCUGUGAACUAUUGGAAUGUCUCUUCCUUCAACCUUAAAAACAACUAUUUCACCAGCUCUGAUGGGGUCCUCCCGGAAAUUCGUGAGGAACAGGAGGUCUCCUCUGUGCAACAGAGGAUUGAGCAUCA
B6: chr4:47484081:47484082:-_ENSMUSG00000039740_ENSMUST00000044148|mus_hu|motif|central (ssRNA)
RNA: GGGAGUUCUACAGUCCGACGAUCCAUUAUACUAUGAAGCCAAAUUAAUCAACUUUGAUAAUGAUACACACUUAAACGGUGAAAACCAAUUAAGGCACAGUAUCAUUCAAAAUUUAUAGACAGAAGAGCAAUAAUCCCGAGAAACAACAGAGGAUUGAGCAUCA
B7: chr2:131005039:131005040:-_ENSMUSG00000068267_ENSMUST00000089510|mus_hu|FALSE|FALSE (ssRNA)
RNA: GGGAGUUCUACAGUCCGACGAUCGUACCAUAGACUGGUCUCGGUGGCGCUGAACACGUCCUGCGAGGCGUAGCCCUCGGCCACCGACGGCGGCUGCUCCUCCCGAGCGCGCCAACCAGUAGUGCUCCCGCCACUGCCCUCCGACAACAGAGGAUUGAGCAUCA
B8: chr17:45747064:45747065:+_ENSG00000108424_ENST00000290158|hu_hu|FALSE|FALSE (ssRNA)
RNA: GGGAGUUCUACAGUCCGACGAUCGCCUACAGUCCAUGCAGCUGUAUCUCGAACAACUACACUGGGGUCUUUCAUUAAUUCUAUUAGGGUGGGCAUAGCCUGUAUAACUAGUGGUUUGAGCUGACUGGGCUCUGGUCCUUCCAACAACAGAGGAUUGAGCAUCA
B9: chr16:94690093:94690094:+_ENSMUSG00000040785_ENSMUST00000117648|mus_hu|mus_mus_mus_hu_True|38_108 (ssRNA)
RNA: GGGAGUUCUACAGUCCGACGAUCGGGGACUCCUGUGGGACACACAGCCUCGAUUCCAGGGGGAAAAAGUCUUAGUCGAUACUAAUUAAAAAGUGUUUUUAUAAUUGGAAAAUCAGAUUACAUCUAUAAAAGAUGAAAAGCAAACAACAGAGGAUUGAGCAUCA
B10: chr3:179287964:179287965:+_ENSG00000136518_ENST00000429709|hu_hu|hu_hu_hu_mus_True|68_78 (ssRNA)
RNA: GGGAGUUCUACAGUCCGACGAUCCUUGAGUGGUGAGAUGGCCUCCAUGUUCUCCCUCGGAACACGCAGAGCAUUAGUGUCUAUGUAGUAGGUGGGCCCGCCCUGCUUGCCUUUGUCACCAUCAAUCUCCAUCAUUGUACUUCCCAACAGAGGAUUGAGCAUCA
B11: chr2:74714571:74714572:+_ENSMUSG00000027099_ENSMUST00000028511|mus_hu|motif|central (ssRNA)
RNA: GGGAGUUCUACAGUCCGACGAUCCACCAAUAUCUAAUGUAACAUUCAAGUAAAACAUAUUUCAAAAGUUAAGACUCCUGAGACGGACACAUAACUCUAUGACAGCCUGCCUUUACCACGAUCUUCAAAAUAGUGCUGUUCAAUCAACAGAGGAUUGAGCAUCA
B12: chr7:141441981:141441982:+_ENSG00000106028_ENST00000265304|hu_mus|hu_hu_hu_mus_False|1_88 (ssRNA)
RNA: GGGAGUUCUACAGUCCGACGAUCCUCAUGUCUUACAAACUGACGAAGUACCUGUAACACAGGUCUUCGAAACAUGGCUUCUGUUUUUCUUACAACCUAAUCUUUAGGCUUUUCCUAAAGGAAAGAAAGAAAAGAGAAGCCCAGCAACAGAGGAUUGAGCAUCA
B13: chr2:27445747:27445748:+_ENSG00000084774_ENST00000264705|hu_hu|motif|central (ssRNA)
RNA: GGGAGUUCUACAGUCCGACGAUCGGAGGCAGGGUCACCAGGCCCAUUACUUAAGAAGAGACCCUCAUACUCUUGGCUGUCGGGUGCAUGGUCCCAGGGUACCACAGUGACCUCAGCCCCACGCUGGCAGAGGCAUCGGAUCUGCAACAGAGGAUUGAGCAUCA
B14: chr17:55758012:55758013:+_ENSG00000153944_ENST00000284073|hu_hu|FALSE|FALSE (ssRNA)
RNA: GGGAGUUCUACAGUCCGACGAUCUGUUUUUAAAAAACAUCUUGGGAAAAGCAGUUUUUCAUAUUUUAAAUAAAAAUCUAACUAGACGGUAACAUUUGAAGCUGUGCACAGACAAGAGGUUAAUAGGCUGGUACAACACUAAUACAACAGAGGAUUGAGCAUCA
B15: chr1:182352875:182352876:-_ENSG00000135821_ENST00000339526|hu_hu|FALSE|FALSE (ssRNA)
RNA: GGGAGUUCUACAGUCCGACGAUCCAUAAUCCACAAAACCAUACAUAUAGUUUUUUGUCUUUACAUUUAAAUAUAAAAAUACUAUUCUGCUUUGUGUGAUAAAUCAAGGACCAAGCAGUAAGAACCUUUUCUUCUUUCAAGGUACAACAGAGGAUUGAGCAUCA
B16: chr17:65740002:65740003:+_ENSG00000130935_ENST00000581375|hu_mus|FALSE|FALSE (ssRNA)
RNA: GGGAGUUCUACAGUCCGACGAUCAACAAAUCUUUCUUCCCUGGACGAACAGGAAGAUUCAUAUUAAAAAAAAUAUAUAUCCAUCAAGUUAGGUGUGGUGGCCACACCUUUACUCCCAGCACUUUGGGAGGUGGAUCUCUGAGUCAACAGAGGAUUGAGCAUCA
B17: chr17:26420301:26420302:+_ENSMUSG00000024188_ENSMUST00000114976|mus_mus|FALSE|FALSE (ssRNA)
RNA: GGGAGUUCUACAGUCCGACGAUCAGUGUGCCUUGAGUCCUGAAAUCCAAGUCUGCCCAGACAAGACUGUCUUUCCAGAAAAGGUUCAAAAACCGACAAAAAACUUUUGCCACAACAUCCUUGUAAAACUCACCCUCCACAAGACAACAGAGGAUUGAGCAUCA
B18: chr4:140556289:140556290:+_ENSMUSG00000036622_ENSMUST00000037055|mus_mus|mus_mus_mus_hu_False|28_88 (ssRNA)
RNA: GGGAGUUCUACAGUCCGACGAUCGAUGGAGCUCACCAGGCCCCCUUUGGCUGUGCAGAACCCUGUGCGGGUCACCACUGCCAGGACGUGCGGUCCCACAUAGGCCCGGGCCUGCAGGAUGAGGGUCCCGCAGAAGAGUGUGUGCAACAGAGGAUUGAGCAUCA
B19: chr6:67234166:67234167:+_ENSMUSG00000036371_ENSMUST00000042990|mus_hu|motif|central (ssRNA)
RNA: GGGAGUUCUACAGUCCGACGAUCUGAAGAAUGCAUAAUCUCUGAAAAUUAUGAAAACAUCCCUGCUACCAAUACAUUUCGGAAUACAAAACUGACUACCAUAUUUGUUACUUCUGUGUAGCGGGAGAAGUUCAUUUUUAAAACCAACAGAGGAUUGAGCAUCA
B20: chr17:90989275:90989276:-_ENSMUSG00000024109_ENSMUST00000160844|mus_mus|FALSE|FALSE (ssRNA)
RNA: GGGAGUUCUACAGUCCGACGAUCAGAUGUUGUCUUGAAUUGGAAAAAUAGAUGCAUAGAGGUGUAGGCUUGCAAUGUAGCUAAGGCAACAUAGCUCGAUUUGGUCUUGAAGGUGACAGGAUCUGCGAUGAUGUUCCUGAAUCCCAACAGAGGAUUGAGCAUCA
B21: chr17:7482246:7482247:+_ENSG00000161960_ENST00000293831|hu_hu|motif|central (ssRNA)
RNA: GGGAGUUCUACAGUCCGACGAUCAGUUUCCAAGUCAUUUUAUUCAGAAUUUUGUGUUUGUUUCCUGAAUCAAUAAAUACGGUACAAAACAAUGUAAAAAUGGCUACCAUUUUCUCUCCCCUGCUUCCCCCCACCUGGGGACAACAACAGAGGAUUGAGCAUCA
B22: chr7:30889366:30889367:+_ENSMUSG00000049421_ENSMUST00000108200|mus_mus|motif|central (ssRNA)
RNA: GGGAGUUCUACAGUCCGACGAUCUGUCUGUGCCCAGGGGAAAUAAUUGUUUUCUAGGUUUCCUGAAUUUGUUUUUUAGUCGGUCUCUCUACAGAAAGCUGAGACUUAACUCACACGUCUUUCAUCCUGUGUCCUUAUCUGUGUCAACAGAGGAUUGAGCAUCA

target: T1, UNK ZnF1-3; experiment: nsRBNS (natural sequence RNA bind-n-seq); RBNS binding buffer (assumed for nsRBNS): 25 mM Tris pH 7.5, 150 mM KCl, 3 mM MgCl2, 0.01% Triton X-100, 500 ug/ml BSA, 20 U/ml SUPERase-In, 4 C; UNK is unkempt and MSI1 is Musashi-1; names of the RNAs are library labels; protein concentration not given here; high values mean tight binding

Compared with B1, B2 is lower in binding signal: 1.32 enrichment R for the first, 0.713 enrichment R for the second.

Compared with B3, B4 is higher in binding signal: 0.609 enrichment R for the first, 0.656 enrichment R for the second.

Going from B5 to B6, the binding signal rises from 0.779 enrichment R to 0.812 enrichment R.

First: B7
Second: B8
The binding signal of the first is lower: 0.363 enrichment R for the first, 1.11 enrichment R for the second.

Compared with B9, B10 is lower in binding signal: 1.84 enrichment R for the first, 0.601 enrichment R for the second.

Compared with B11, B12 is lower in binding signal: 1.87 enrichment R for the first, 0.392 enrichment R for the second.

First: B13
Second: B14
The binding signal of the first is lower: 0.873 enrichment R for the first, 1.91 enrichment R for the second.

First: B15
Second: B16
The binding signal of the first is lower: 0.657 enrichment R for the first, 0.947 enrichment R for the second.

First: B17
Second: B18
The binding signal of the first is higher: 1.53 enrichment R for the first, 1.22 enrichment R for the second.

Compared with B19, B20 is higher in binding signal: 1 enrichment R for the first, 1.01 enrichment R for the second.

Compared with B21, B22 is lower in binding signal: 2.28 enrichment R for the first, 0.571 enrichment R for the second.
